{"source": "the supplement of paper PMC4166925", "note": "± gives the standard deviation of the averaged measurements. In all, about 33,000 sequences were measured (“E-score (dimensionless, -0.5 to 0.5)”: median about -0.046, highest 2% from about 0.36 on). The list shows a part of the results."}
{"tested_on": "T1, SpTbr T-box DNA-binding domain (GST fusion)", "T1 sequence": "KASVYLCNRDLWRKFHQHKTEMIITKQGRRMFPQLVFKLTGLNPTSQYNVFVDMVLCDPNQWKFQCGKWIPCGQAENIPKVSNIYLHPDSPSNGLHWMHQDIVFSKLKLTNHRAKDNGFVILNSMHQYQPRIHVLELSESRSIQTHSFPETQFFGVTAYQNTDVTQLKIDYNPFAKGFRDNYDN", "assay": "PBM E-score of 8-mer (E-score (dimensionless, -0.5 to 0.5)); Tbr is Tbrain of the sea star Patiria miniata (Pm) or the sea urchin Strongylocentrotus purpuratus (Sp); higher = stronger binding preference; most listed sequences are background and not binding sites", "conditions": "the construct has about 5 more residues each side", "method_in_brief": "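Expression of GST-fused Tbr T-box DNA-binding domains, each holding the full T-box plus roughly five flanking residues, was carried out in BL21 E. coli at 20 °C, with purification by glutathione affinity chromatography. Universal Agilent arrays made double-stranded by primer extension were incubated with the protein at 200 nM in PBS (pH 7.5), then scanned and quantified. All ungapped 8-mers were scored from probe intensities, and each received an enrichment E-score from the Universal PBM Analysis Suite, averaged over duplicate arrays.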"}
{"sequence": "AGGCGACA", "PBM E-score of 8-mer": "0.37 ± 0.013"}
{"sequence": "ATCCGTGG", "PBM E-score of 8-mer": "-0.248 ± 0.014"}
{"sequence": "AAGCTGGC", "PBM E-score of 8-mer": "0.122 ± 0.0081"}
{"sequence": "CAGGGAAA", "PBM E-score of 8-mer": "-0.189 ± 0.037"}
{"sequence": "AATGTCCC", "PBM E-score of 8-mer": "-0.356 ± 0.0083"}
{"sequence": "AGACCGGC", "PBM E-score of 8-mer": "0.00958 ± 0.059"}
{"sequence": "GTACCCAA", "PBM E-score of 8-mer": "-0.242 ± 0.0096"}
{"sequence": "CACATCTA", "PBM E-score of 8-mer": "0.314 ± 0.0055"}
{"sequence": "GACTAGTC", "PBM E-score of 8-mer": "-0.123 ± 0.036"}
{"sequence": "AGTATACC", "PBM E-score of 8-mer": "-0.159 ± 0.029"}
{"sequence": "CAGAACCC", "PBM E-score of 8-mer": "-0.17 ± 0.059"}
{"sequence": "CTGCCCTC", "PBM E-score of 8-mer": "-0.012 ± 0.12"}
{"sequence": "GCGACCAC", "PBM E-score of 8-mer": "0.152 ± 0.045"}
{"sequence": "AGAACCGA", "PBM E-score of 8-mer": "-0.0135 ± 0.058"}
{"sequence": "CAGGTGCG", "PBM E-score of 8-mer": "0.454 ± 0.01"}
{"sequence": "AGTCGTGC", "PBM E-score of 8-mer": "0.142 ± 0.015"}
{"sequence": "AGGTCCCC", "PBM E-score of 8-mer": "-0.3155 ± 0.00044"}
{"sequence": "AGTTGCAC", "PBM E-score of 8-mer": "0.115 ± 0.0096"}
{"sequence": "ATGTTAGC", "PBM E-score of 8-mer": "0.0874 ± 0.016"}
{"sequence": "ACTCAATC", "PBM E-score of 8-mer": "-0.0092 ± 0.032"}
{"sequence": "TAGTTAGA", "PBM E-score of 8-mer": "-0.195 ± 0.024"}
{"sequence": "ACGTTCGC", "PBM E-score of 8-mer": "0.251 ± 0.03"}
{"sequence": "AGAACGGC", "PBM E-score of 8-mer": "-0.0791 ± 0.027"}
{"sequence": "CCATGAAC", "PBM E-score of 8-mer": "-0.09459 ± 0.00029"}
{"sequence": "TATGGACA", "PBM E-score of 8-mer": "-0.142 ± 0.03"}
{"sequence": "ACTGGCTC", "PBM E-score of 8-mer": "-0.087 ± 0.038"}
{"sequence": "AATCAACG", "PBM E-score of 8-mer": "-0.0642 ± 0.022"}
{"sequence": "GGTTGTAC", "PBM E-score of 8-mer": "0.0395 ± 0.061"}
{"sequence": "CAAAAATA", "PBM E-score of 8-mer": "-0.199 ± 0.039"}
{"sequence": "GTCGAAAC", "PBM E-score of 8-mer": "-0.0507 ± 0.013"}
{"sequence": "ATGAACGC", "PBM E-score of 8-mer": "-0.0517 ± 0.018"}
{"sequence": "ATAGCGTC", "PBM E-score of 8-mer": "0.125 ± 0.0054"}
{"sequence": "GCCACGCC", "PBM E-score of 8-mer": "0.155 ± 0.0018"}
{"sequence": "CACTTCGA", "PBM E-score of 8-mer": "0.228 ± 0.029"}
{"sequence": "CTACAGGC", "PBM E-score of 8-mer": "-0.131 ± 0.028"}
{"sequence": "CCAAATCC", "PBM E-score of 8-mer": "-0.113 ± 0.0018"}
{"sequence": "GCGAGGGA", "PBM E-score of 8-mer": "0.162 ± 0.052"}
{"sequence": "ACATTTCC", "PBM E-score of 8-mer": "-0.055 ± 0.0025"}
{"sequence": "ACATGTTG", "PBM E-score of 8-mer": "0.173 ± 0.055"}
{"sequence": "GATTCAGC", "PBM E-score of 8-mer": "-0.199 ± 0.004"}
{"sequence": "TCCTATAA", "PBM E-score of 8-mer": "-0.202 ± 0.019"}
{"sequence": "CAATAATG", "PBM E-score of 8-mer": "-0.142 ± 0.02"}
{"sequence": "GAAGACAA", "PBM E-score of 8-mer": "0.0878 ± 0.016"}
{"sequence": "TGAAGAAA", "PBM E-score of 8-mer": "-0.0361 ± 0.045"}
{"sequence": "GCCTAGAA", "PBM E-score of 8-mer": "-0.103 ± 0.019"}
{"sequence": "CTATCCGA", "PBM E-score of 8-mer": "-0.299 ± 0.087"}
{"sequence": "CCACATCC", "PBM E-score of 8-mer": "-0.0299 ± 0.14"}
{"sequence": "CAGACTGG", "PBM E-score of 8-mer": "-0.33 ± 0.011"}
{"sequence": "AATATAGG", "PBM E-score of 8-mer": "-0.00887 ± 0.12"}
{"sequence": "TCGAACAA", "PBM E-score of 8-mer": "-0.143 ± 0.034"}
{"sequence": "CGTGGGAC", "PBM E-score of 8-mer": "0.0261 ± 0.0086"}
{"sequence": "CTGGCTCA", "PBM E-score of 8-mer": "0.118 ± 0.035"}
{"sequence": "ACATCTGG", "PBM E-score of 8-mer": "0.0231 ± 0.025"}
{"sequence": "GAAGGAGC", "PBM E-score of 8-mer": "-0.156 ± 0.084"}
{"sequence": "CTCCACGA", "PBM E-score of 8-mer": "-0.0217 ± 0.068"}
{"sequence": "GAATTGAC", "PBM E-score of 8-mer": "0.0994 ± 0.016"}
{"sequence": "ATGCCTTG", "PBM E-score of 8-mer": "-0.179 ± 0.056"}
{"sequence": "CCAGGGCG", "PBM E-score of 8-mer": "-0.0798 ± 0.082"}
{"sequence": "AAAGAGCG", "PBM E-score of 8-mer": "-0.0683 ± 0.0027"}
{"sequence": "AACAAGCC", "PBM E-score of 8-mer": "0.00439 ± 0.043"}
{"sequence": "GCCCCACA", "PBM E-score of 8-mer": "0.0709 ± 0.076"}
{"sequence": "GCGGGTCC", "PBM E-score of 8-mer": "0.00421 ± 0.052"}
{"sequence": "GCTATTCC", "PBM E-score of 8-mer": "-0.237 ± 0.058"}
{"sequence": "CGTCCTTA", "PBM E-score of 8-mer": "-0.2949 ± 0.0015"}
{"sequence": "ATCTATAG", "PBM E-score of 8-mer": "-0.0857 ± 0.049"}
{"sequence": "CTGATCCA", "PBM E-score of 8-mer": "-0.238 ± 0.023"}
{"sequence": "ACATCAAG", "PBM E-score of 8-mer": "-0.0049 ± 0.071"}
{"sequence": "CGCGCTCC", "PBM E-score of 8-mer": "0.0466 ± 0.14"}
{"sequence": "GAGTGCTA", "PBM E-score of 8-mer": "0.282 ± 0.0081"}
{"sequence": "AACTCCGG", "PBM E-score of 8-mer": "-0.122 ± 0.0055"}
{"sequence": "AGTTTGTC", "PBM E-score of 8-mer": "0.137 ± 0.0077"}
{"sequence": "ATCGCTAC", "PBM E-score of 8-mer": "0.132 ± 0.018"}
{"sequence": "ACGGTATG", "PBM E-score of 8-mer": "-0.119 ± 0.014"}
{"sequence": "AGTTACCG", "PBM E-score of 8-mer": "0.0306 ± 0.0028"}
{"sequence": "TGAACCAA", "PBM E-score of 8-mer": "0.0124 ± 0.00074"}
{"sequence": "AAATCAAA", "PBM E-score of 8-mer": "-0.189 ± 0.055"}
{"sequence": "CATATTCG", "PBM E-score of 8-mer": "0.0585 ± 0.056"}
{"sequence": "GCGTATAA", "PBM E-score of 8-mer": "-0.0456 ± 0.03"}
{"sequence": "GTAGACAA", "PBM E-score of 8-mer": "-0.0858 ± 0.00091"}
{"sequence": "CGGACGAA", "PBM E-score of 8-mer": "-0.0131 ± 0.0016"}
{"sequence": "ACGGGCCC", "PBM E-score of 8-mer": "-0.136 ± 0.035"}
{"sequence": "GGACTTGA", "PBM E-score of 8-mer": "-0.12 ± 0.047"}
{"sequence": "ATTCTTGG", "PBM E-score of 8-mer": "-0.188 ± 0.053"}
{"sequence": "ATTAAACC", "PBM E-score of 8-mer": "-0.228 ± 0.053"}
{"sequence": "AGACCCCT", "PBM E-score of 8-mer": "-0.232 ± 0.025"}
{"sequence": "ATCAATGA", "PBM E-score of 8-mer": "-0.0875 ± 0.023"}
